These results are taken from article PMC6363091.

Amino acid sequences for entries named in this document (tags omitted).
UniProt Q9SV55: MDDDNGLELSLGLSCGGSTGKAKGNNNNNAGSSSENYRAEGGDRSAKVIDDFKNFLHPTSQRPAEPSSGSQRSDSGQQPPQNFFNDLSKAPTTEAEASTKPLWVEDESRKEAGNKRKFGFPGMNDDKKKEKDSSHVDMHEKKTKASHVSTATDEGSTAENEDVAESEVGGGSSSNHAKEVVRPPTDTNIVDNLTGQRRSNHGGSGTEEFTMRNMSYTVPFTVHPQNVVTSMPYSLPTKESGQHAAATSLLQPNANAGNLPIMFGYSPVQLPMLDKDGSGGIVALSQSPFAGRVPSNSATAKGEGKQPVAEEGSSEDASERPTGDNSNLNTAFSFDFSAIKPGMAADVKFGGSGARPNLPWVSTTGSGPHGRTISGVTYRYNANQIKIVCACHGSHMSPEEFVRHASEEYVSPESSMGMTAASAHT

Test [1] concerns the target NINJA fused to the C-terminus of YFP (Arabidopsis thaliana) (UniProt Q9SV55). In words: split reporter; BiFC with split YFP in N. benthamiana leaves, Agrobacterium strains mixed 1:1 (OD600 0.4 each) with a nuclear marker; confocal imaging two days later.
The target in test [2] is NINJA–GFP (Arabidopsis thaliana) (UniProt Q9SV55). The test can be described thus: co-IP; Arabidopsis protoplasts co-transfected with GFP fusions and ERF19-HA3; total proteins immunoprecipitated with anti-GFP, blotted with anti-GFP and anti-HA.
Test [3] addresses T1, HDA19 fused to the binding domain (BD) of GAL4 (Arabidopsis thaliana) (UniProt O22446).
T1 sequence: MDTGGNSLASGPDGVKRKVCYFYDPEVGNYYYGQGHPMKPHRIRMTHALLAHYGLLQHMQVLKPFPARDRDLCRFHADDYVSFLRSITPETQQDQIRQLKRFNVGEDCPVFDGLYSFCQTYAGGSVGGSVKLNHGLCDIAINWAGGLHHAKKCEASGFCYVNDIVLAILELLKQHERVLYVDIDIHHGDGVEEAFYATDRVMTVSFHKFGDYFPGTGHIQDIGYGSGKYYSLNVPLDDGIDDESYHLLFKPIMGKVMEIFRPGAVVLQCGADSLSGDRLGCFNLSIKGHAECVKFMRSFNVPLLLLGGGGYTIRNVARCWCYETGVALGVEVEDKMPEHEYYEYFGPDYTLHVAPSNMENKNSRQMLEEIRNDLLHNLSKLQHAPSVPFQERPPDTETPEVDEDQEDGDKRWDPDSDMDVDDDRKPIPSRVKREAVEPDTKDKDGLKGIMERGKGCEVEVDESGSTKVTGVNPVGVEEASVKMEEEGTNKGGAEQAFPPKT
The test can be described thus: two-hybrid; yeast AH109, ERF19 in pGADT7 (AD), partners in pGBKT7 (BD); growth and blue staining on SD -L-W-H with X-α-Gal, 30 °C, 3 d.

Test [4] has as its target T2, HDA6 fused to the binding domain (BD) of GAL4 (Arabidopsis thaliana) (UniProt Q9FML2).
T2 sequence: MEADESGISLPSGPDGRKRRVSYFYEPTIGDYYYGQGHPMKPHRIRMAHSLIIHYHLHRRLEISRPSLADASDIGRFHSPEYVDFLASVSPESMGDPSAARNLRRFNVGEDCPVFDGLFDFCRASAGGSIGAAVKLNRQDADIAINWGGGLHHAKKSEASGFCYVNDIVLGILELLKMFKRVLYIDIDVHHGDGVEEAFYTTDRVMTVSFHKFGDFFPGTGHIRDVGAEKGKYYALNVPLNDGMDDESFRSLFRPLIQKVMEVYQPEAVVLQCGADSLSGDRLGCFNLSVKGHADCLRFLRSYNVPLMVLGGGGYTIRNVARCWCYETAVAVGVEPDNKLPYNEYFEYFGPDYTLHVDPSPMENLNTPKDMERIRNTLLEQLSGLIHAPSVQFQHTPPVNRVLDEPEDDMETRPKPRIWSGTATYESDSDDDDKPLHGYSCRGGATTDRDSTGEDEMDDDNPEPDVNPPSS
The test is described as above.

Test [5] concerns the target NINJA fused to the binding domain (BD) of GAL4 (Arabidopsis thaliana) (UniProt Q9SV55). The description is as above.

No constants are given. Whether binding was seen depends on the method and setting. For some assays here: In cells and extracts the contact can be indirect. Some results given as binding are weak or reduced against the parent protein; the word gives no strength. For some assays here: Sequences can lack the tags named with a protein.

B1: ERF19–nYFP (protein, UniProt O80542 1-144)
chain: MDYRESTGESQSKYKGIRRRKWGKWVSEIRVPGTRDRLWLGSFSTAEGAAVAHDVAFFCLHQPDSLESLNFPHLLNPSLVSRTSPRSIQQAASNAGMAIDAGIVHSTSVNSGCGDTTTYYENGADQVEPLNISVYDYLGGHDHV
As to B1, in test [1], the binding entry is given as “binds”.

B2: ERF19-HA3 (protein, UniProt O80542 1-144)
chain: MDYRESTGESQSKYKGIRRRKWGKWVSEIRVPGTRDRLWLGSFSTAEGAAVAHDVAFFCLHQPDSLESLNFPHLLNPSLVSRTSPRSIQQAASNAGMAIDAGIVHSTSVNSGCGDTTTYYENGADQVEPLNISVYDYLGGHDHV
Consider B2, for which, in test [2], the binding entry is given as “binds”.

B3: ERF19 fused to the activation domain (AD) of GAL4 (protein, UniProt O80542 1-144)
chain: MDYRESTGESQSKYKGIRRRKWGKWVSEIRVPGTRDRLWLGSFSTAEGAAVAHDVAFFCLHQPDSLESLNFPHLLNPSLVSRTSPRSIQQAASNAGMAIDAGIVHSTSVNSGCGDTTTYYENGADQVEPLNISVYDYLGGHDHV
B3: the binding entry was “no binding” in test [3], “no binding” in test [4] and “binds” in test [5].
